# Measured values reported in publication PMC4336329 (PLoS ONE, 2015).
# In all, about 310,000 compounds went through this assay and about 2,200 (0.71%) showed an effect of 50% or more. The effect is printed as a negative number. The list shows a part of the results.
# Biological target: human ether-à-go-go-related gene (hERG) potassium channel (human, UniProt Q12809)
# Assay: primary screen, population patch clamp on CHO cells stably expressing hERG
# human ether-à-go-go-related gene (hERG) potassium channel, sequence (Q12809 whole entry, looked up): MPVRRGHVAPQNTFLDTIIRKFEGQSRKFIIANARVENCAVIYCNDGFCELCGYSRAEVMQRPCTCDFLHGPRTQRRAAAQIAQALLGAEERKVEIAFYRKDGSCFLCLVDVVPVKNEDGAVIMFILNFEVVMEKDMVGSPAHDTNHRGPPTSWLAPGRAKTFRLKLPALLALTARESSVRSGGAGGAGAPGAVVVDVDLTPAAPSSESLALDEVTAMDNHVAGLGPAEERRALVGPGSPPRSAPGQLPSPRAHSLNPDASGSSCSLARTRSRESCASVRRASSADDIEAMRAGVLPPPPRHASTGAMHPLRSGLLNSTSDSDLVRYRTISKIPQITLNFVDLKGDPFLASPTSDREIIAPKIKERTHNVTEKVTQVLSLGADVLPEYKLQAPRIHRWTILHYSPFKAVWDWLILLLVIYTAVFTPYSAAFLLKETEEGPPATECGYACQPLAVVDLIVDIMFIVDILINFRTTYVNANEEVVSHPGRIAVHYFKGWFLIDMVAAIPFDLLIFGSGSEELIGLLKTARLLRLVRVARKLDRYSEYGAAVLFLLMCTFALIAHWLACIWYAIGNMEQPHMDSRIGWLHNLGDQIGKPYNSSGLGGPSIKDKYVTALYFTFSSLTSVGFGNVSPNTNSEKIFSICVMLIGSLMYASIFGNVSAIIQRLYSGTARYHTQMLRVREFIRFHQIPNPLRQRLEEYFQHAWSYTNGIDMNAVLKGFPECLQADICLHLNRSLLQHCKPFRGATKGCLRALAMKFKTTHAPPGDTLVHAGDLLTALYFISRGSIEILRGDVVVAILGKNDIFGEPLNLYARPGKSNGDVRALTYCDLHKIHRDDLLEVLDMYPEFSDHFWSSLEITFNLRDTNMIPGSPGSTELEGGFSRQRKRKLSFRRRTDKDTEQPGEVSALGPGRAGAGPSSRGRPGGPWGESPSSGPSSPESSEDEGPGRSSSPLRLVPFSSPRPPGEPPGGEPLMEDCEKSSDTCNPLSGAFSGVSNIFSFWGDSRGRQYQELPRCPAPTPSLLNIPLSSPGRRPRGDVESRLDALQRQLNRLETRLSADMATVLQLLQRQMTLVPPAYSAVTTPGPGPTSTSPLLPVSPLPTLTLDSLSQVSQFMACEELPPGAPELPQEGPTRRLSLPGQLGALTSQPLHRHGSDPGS
row,Structure (SMILES),"hERG current change (%, negative = inhibition) at 1uM [%]"
1,CSc1cccc(N/C(=N/S(=O)(=O)c2ccccc2)NN)c1,5.31
2,CCn1c(C(=O)NC(C)c2ccc3c(c2)OCCO3)cc2sccc21 (centres unmarked),7.01
3,COc1ccc(Nc2ncc(C(=O)N3CCN(Cc4ccccc4)CC3)c3ccccc23)cc1,6.09
4,COC(=O)C(C(=O)Nc1ccccc1C)C1CCCC1 (centres unmarked),15.9
5,O=C(CCC(=O)c1ccc(-c2ccccc2)cc1)Nc1cccnc1,4.5
6,CC(C)(C)c1cnnn1-c1ccc(NC(=O)c2ccc3c(c2)OCO3)cc1,-0.754
7,COC(=O)c1nc(-c2ccccc2)nc(-c2ccccc2)c1C(=O)OC,-14.1
8,CCC1CN(C(=O)N2CCC(C(=O)NCc3ccco3)CC2)c2cc(C)ccc2O1 (centres unmarked),2.69
9,O=C(Cc1ccc(-c2ccccc2)cc1)NCc1ccccc1,22
10,O=C(N/N=C/c1c(O)ccc2ccccc12)c1[nH]ncc1Br,6.16
11,Cc1ccc(C(=O)CSc2nnc(COc3ccc(C#N)cc3)n2-c2ccccc2)cc1,11.8
12,CC(=O)C(N=Nc1ccccc1)(Sc1nnc(-c2ccccc2)n1-c1ccccc1)C(=O)Nc1ccccc1 (centres unmarked),6.26
13,CC(=O)N1CCN(c2ccc(S(C)(=O)=O)cc2[N+](=O)[O-])CC1,6.42
14,CN(C)c1ccc(C2Nc3cccc4cccc(c34)N2)cc1,14.2
15,O=C(NNC(=O)c1cc(O)c(O)c(O)c1)NC1CCCCC1,5.06
16,O=S(=O)(c1ccccc1Cl)N1CCCC(c2nc(-c3cccnc3)no2)C1 (centres unmarked),-32.1
17,Cc1nc2c3cnn(-c4ccccc4)c3ncn2n1,18.3
18,CC1O[C@@H](O[C@H](C)CC/C=C/C(=O)O)C(O)C[C@H]1O (some centres unmarked),8.02
19,CCOc1ccc(C(=O)NC2CC3CCCC(C2)N3Cc2ccccc2)cc1 (centres unmarked),-20.4
20,CSCCC(NC(=O)c1ccc(Cl)c([N+](=O)[O-])c1)C(=O)N1CCN(C/C=C/c2ccccc2)CC1 (centres unmarked),-1.51
21,O=C(Nc1ccc2c(c1)OCO2)C1Cc2ccccc2CN1S(=O)(=O)c1cccs1 (centres unmarked),11.7
22,Cc1ccc(-n2ncc3c(=O)[nH]c(SCC(=O)N4CCCc5ccccc54)nc32)cc1,8.81
23,Cc1cc(C)n(C(=O)CCC2COc3ccccc3O2)n1 (centres unmarked),-19.1
